Experimental data taken from PubChem BioAssay AID1508624 (National Center for Advancing Translational Sciences (NCATS), 2021).
Out of some 48,000 compounds screened, about 120 (0.25%) were called active. Another 4% or so got no clear call; they are omitted. Calls come from the whole dose curve; as a rule, active = well fitted activation curve with a large enough effect; inconclusive = small, poorly fitted or top-dose-only effect, or another doubt; inactive = no such curve, though single readings can be large or run the other way. The list shows a part of the results.

assay: Primary qHTS for Identification of Small Molecule Activators of Huntingtin-Antisense Promoter Activity; conditions: HEK293 HTT-AS promoter firefly luciferase reporter, 24 h; series mostly up to 57.5 µM; activity change, positive = activation: at the top concentration; note: nearly all actives have a fitted effect of over 55% in size
Procedure, shortened: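 HEK293 cells carrying firefly luciferase reporters were seeded at 2,500 per well in Opti-MEM and cultured for 24 h. They were then treated with compounds at up to 57.5 uM final for 24 h at 37 degrees C before Dual-Glo luminescence readout.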

Activity change, positive = activation, inactive:
COc1ccc(-c2cc(C(=O)Nc3c(C(=O)c4ccc(Cl)cc4)oc4ccccc34)no2)cc1 -7.44%
CCOC(=O)c1cc2c(=O)n3ccccc3nc2n(CC2CCCO2)c1=NC(=O)c1cccc(C(F)(F)F)c1 (configuration not stated) 8.24%
CC(=O)N1CCC(N(Cc2ccco2)C(=O)Nc2cccc(C)c2)CC1 -4.47%
Cc1cccc(NC(=O)c2cnn(-c3ccccc3)c2-n2cccc2)c1C -34.9%
CNC(=O)c1ccccc1Nc1nc(Nc2ccc(N3CCOCC3)cc2OC)ncc1Cl -34.1%
CCOC(=O)N1CCN(S(=O)(=O)N2CCCC(C(=O)NCc3cccc(OC)c3)C2)CC1 (configuration not stated) -15.3%
CC1=C(C(=O)Nc2cc3cn[nH]c3cc2F)C(c2ccc(C(F)(F)F)cc2)CC(=O)N1 (configuration not stated) -13.3%
CCC1CN(C(=O)N2CCC(C(=O)NCc3ccc(C)o3)CC2)c2cc(C)ccc2O1 (configuration not stated) -21.9%
CCS(=O)(=O)c1ncc(N(Cc2ccco2)Cc2sccc2C)c(C(=O)Nc2cc(C)ccc2C)n1 -13.6%
Cn1c(C(=O)NCc2ccc(F)cc2)cc2c(=O)n(C)c3ccccc3c21 -4.91%
CCCn1c(=O)c2sccc2n2c(CCCC(=O)N3CCN(c4ccccc4)CC3)nnc12 -0.984%
COc1ccc(CCNC(=O)Cn2nnc(-c3ccc(C(F)(F)F)cc3)n2)cc1OC -22.6%
COc1ccc(C(=O)NCCc2sc(-c3cccc(F)c3)nc2C)cc1 -16.1%
Cc1ccccc1NS(=O)(=O)c1ccc2[nH]cc(C(=O)N3CCCC3)c(=O)c2c1 -17.9%
Cc1nc2ccn(Cc3cccnc3)c(=O)c2cc1C(=O)Nc1ccc(OC(F)(F)F)cc1 -16.2%
C[C@@H](N)C1CCC(C(=O)Nc2ccncc2)CC1 (some centres not stated) -4.63%
O=NN(CCCl)C(=O)NCCCl
CC1CCc2nc(NC(=O)COc3ccc(C(C)(C)C)cc3)sc2C1 (configuration not stated) 11.4%
CCOC(=O)c1ncn2c1CN(C)C(=O)c1cc(F)ccc1-2
Cc1cccc(CCn2c(=O)c3ccccc3n(Cc3cccc(F)c3)c2=O)c1 5.8%
COc1ccc(OC)c(C2CC(=O)c3c([nH]c(C(=O)OCC4CCCCC4)c3C)C2)c1 (configuration not stated) -26.5%
CC(=O)c1cccc(NC(=O)CCS(=O)(=O)c2cc(Br)cc3c2N(C(=O)C2CC2)CC3)c1 -7.02%
CCCC(=O)N1CC(=O)Nc2ccc(Cl)cc2C1c1ccc(F)cc1 (configuration not stated) -6.53%
Cc1csc2nc(COC(=O)COc3ccccc3F)cc(=O)n12 -6.71%
O=C(Cc1ccc(NC(=O)N2CCSc3ncccc32)cc1)NCc1ccccc1Cl -20.1%
CCOc1ccc(S(=O)(=O)Nc2ccc3oc(C)c(C(=O)OCCOC)c3c2)cc1 -39.3%
CCC(=O)Nc1nnc(S(=O)(=O)N(C)Cc2ccccc2)s1 -4.47%
COc1cccc(NC(=O)Cn2c(=O)n(-c3ccc(CC(=O)NCC4CCCO4)cc3)c(=O)c3ccccc32)c1 (configuration not stated) -6.65%
CCOc1ccccc1NC(=O)c1cccc2c1C(=O)N(C1CCCCC1)C2 -3.68%
Cc1cc(C)cc(NC(=O)NCCn2nnc3cc(S(=O)(=O)N(C)C)ccc32)c1 -14.2%
CCOc1ccc(C(=O)OCc2cc(=O)n3nc(C4CCCCC4)sc3n2)cc1 -7.08%
CSc1ncc(Cl)c(C(=O)N(Cc2ccccc2Cl)C2CCS(=O)(=O)C2)n1 (configuration not stated) -22.1%
COc1cccc(C(=O)NC(=O)Nc2ccc(-c3cc(C(F)(F)F)nn3-c3ccccc3)cc2)c1 -29.1%
Cc1sc2ncn(CC(=O)Nc3cccc(C(F)(F)F)c3)c(=O)c2c1S(=O)(=O)N1CCC(C)CC1 5.74%
CCOC(=O)C1=C(CN2CCN(c3ccccc3)CC2)NC(=O)NC1c1ccc(C)cc1 (configuration not stated) -32.6%
COc1ccc(C2c3c(-c4ccccc4O)n[nH]c3C(=O)N2Cc2ccco2)cc1 (configuration not stated) -25.2%
O=C(Nc1ccccc1C(=O)OCc1cc(=O)n2nc(C3CC3)sc2n1)c1cccc(Cl)c1 0%
Cc1ccc(Cl)cc1NC(=O)Cn1c(=O)c(CNc2ccccc2)cc2cc3c(cc21)OCCO3 -14.6%
CCCCn1c(-c2ccc(S(=O)(=O)N3CCOCC3)cc2)csc1=Nc1ccccc1 -45.8%
COc1ccc(C(=O)Nc2cc(C(F)(F)F)ccc2N2CCN(c3ccccc3)CC2)cc1OC -4.12%
Cc1cccc(Cn2c(CN3CCC(C(=O)NCCc4ccccc4)CC3)cc3ccccc32)c1 -26.6%
COc1ccc(-c2c(C)nn3c4c(cnc23)C(=O)CC(c2ccc(C)cc2)C4)cc1 (configuration not stated) -13.5%
COc1ccc(-c2nn(C)c3sc(C(=O)N4CCN(c5cccc(C)c5C)CC4)cc23)cc1OC 18.2%
Cc1cc(Br)ccc1NC(=O)c1cc2c(s1)-c1ccccc1SC2 -25.3%
O=C(CCCn1c(=O)c2cccn2c2cccnc21)NCCc1ccc(Cl)cc1 -15.7%
CCOC(=O)c1ccccc1NC(=O)CN(c1ccccc1OC)S(=O)(=O)c1ccc(C)cc1 -7.56%
COc1ccc(CN2C(=O)C(NC(=O)c3ccc(C)cc3)(C(F)(F)F)N=C2c2ccccc2)cc1 (configuration not stated) -25.4%
COc1ccccc1NC(=O)CSc1nc2c(oc3ccccc32)c(=O)n1-c1ccc(C)cc1 -12.5%
CCOC(=O)N1CCc2c(sc3c2c(=O)n(-c2ccc(Cl)cc2)c(=O)n3CC(=O)c2ccc(F)cc2)C1 -14.6%
COc1ccc(NS(=O)(=O)c2nnc(NC(=O)c3ccccc3F)s2)cc1 5.19%
COc1ccc(-n2ccnc(NCCc3ccc(S(N)(=O)=O)cc3)c2=O)cc1 -22.4%
COc1cc(/C=C/c2nc(C#N)c(NC3CCCCC3)o2)cc(OC)c1OC -27.4%
O=C(/C=C/c1cn(CC(O)CN2CCCCCC2)c2ccccc12)c1ccccc1 (configuration not stated) -14.7%
Cc1ccc(CNc2nc3c(S(=O)(=O)c4ccccc4)nnn3c3ccsc23)cc1 -3.93%
Cc1ccc(C)c(NC(=O)CSc2cn(CC(=O)N3CCCC3)c3ccccc23)c1 -25.6%
CCCN1C(=O)C(NC(=O)c2ccccc2OC)(C(F)(F)F)C(C(=O)OC)=C1C (configuration not stated) 7.24% [at 11.5 µM, percent change from vehicle, -100% = no light]
CCOc1ccc(NC(=O)Cc2csc(COc3cccc(C)c3)n2)cc1 -0.799%
CCOc1ccccc1C1C(C(=O)Nc2ccccc2OC)=C(C)Nc2nc3ccccc3n21 (configuration not stated) -20.3%
Cc1ccc2nc(NC(=O)c3cc(=O)c4cc(C)c(C)cc4o3)sc2c1 0.442%
CSc1ccc(CNC(=O)CCn2ccc3cc(S(=O)(=O)N4CCCC4)ccc32)cc1 -27.3%
CCOc1ccc(NC(=O)Cn2c(C)ccc(C#N)c2=O)cc1 -10.8%
CCc1nnc2c3ccccc3nc(N3CCN(c4ccc(C)cc4C)CC3)n12 -12.6%
O=C(NCCc1csc(-c2cccnc2)n1)c1cccc(C(F)(F)F)c1 -38.8%
Cc1cc(C)c(NC(=O)CN(CC(=O)O)CC(=O)O)c(C)c1Br -5.34%
COc1ccccc1CNC(=O)c1ccc(C)c(-n2cnc3cccnc32)c1 1.88%
CCOc1ccccc1NC(=O)Cn1c(=O)n(CCC(C)C)c(=O)c2cccnc21 -12.2%
Cc1nc2ccccc2n1CCc1nc2c3ccccc3nc(SCc3cccc(F)c3)n2n1 -8.03%
Cc1cc(C)cc(OCCn2c(C3CC(=O)N(c4ccccc4Cl)C3)nc3ccccc32)c1 (configuration not stated) -39.7%
CC1=C(C(=O)Nc2ccccc2)C(c2ccccc2C)n2ncc(C(=O)Nc3ccccc3)c2N1 (configuration not stated) -12.2%
Cc1ccc2c(=O)c(C(=O)c3ccccc3)cn(CC(=O)Nc3ccc4c(c3)OCCO4)c2n1 -0.538%
COc1ccc(CCNC(=O)CCn2c(=O)c3ccccc3n(CC(=O)Nc3ccccc3F)c2=O)cc1OC -20.3%
Cn1c(=O)c2sccc2n2c(CCC(=O)NCc3ccc(F)cc3)nnc12 -4.4%
CCOC(=O)c1cc(S(=O)(=O)Nc2ccc(Br)c(C)c2)[nH]n1 -18.3%
COc1cc(C2c3c(oc4cc(C)c(C)cc4c3=O)C(=O)N2CCCN2CCOCC2)ccc1O (configuration not stated) -3.88%
CC(O)COc1ccccc1 (configuration not stated) -2.07%
Cc1ccc2c(c1)c1c(c(=O)n(-c3cccc(Cl)c3)c(=O)n1CC(=O)N1CCCC1)n2C -10.2%
Cc1c(C(=O)N2CCC(c3nc4ccccc4s3)CC2)oc2cc(Br)ccc12 16.6% [at 11.5 µM, percent change from vehicle, -100% = no light]
CCCNC(=O)c1cc2nc(-c3ccc(Br)cc3)cc(C(F)(F)F)n2n1 -8.51%
CCOc1ccc(-n2c(SCc3nc(-c4ccc(OC)cc4)no3)nnc2-c2ccncc2)cc1 -17.6%
COc1ccc(Br)cc1CNC(=O)c1cc(=O)[nH]c2ccc(S(=O)(=O)N3CCCC3)cc12 -16.4%
CCOc1cccc2cc(-c3nc4sc5c(c4c(=O)[nH]3)CCC(C(C)(C)C)C5)c(=O)oc12 (configuration not stated) 1.29%
CC(C)Cc1ccc(C(C)C(=O)OCc2ccccn2)cc1 (configuration not stated) -9.7%
CCc1nnc(NC(=O)c2nc(S(=O)(=O)Cc3cccc(C)c3)ncc2Cl)s1 -86.4%
Cn1c(CN2CCCCC2)nc2cc(NC(=O)c3cccc(Br)c3)ccc21 6.11%
NC(=O)CSc1oc(-c2ccco2)nc1S(=O)(=O)c1ccc(Br)cc1 7.47%
CCCCn1cc(S(=O)(=O)c2ccc(C)c(C)c2)c(=O)c2cc(F)c(N3CCN(C)CC3)cc21 -4.25%
O=C(CN1C(=O)CCSc2ccc(S(=O)(=O)N3CCCC3)cc21)Nc1ccccc1 -5.07%
CCC(C(=O)Nc1ccccc1C(=O)OC)n1c(C)c2cnn(-c3ccccc3)c(=O)c2c1C (configuration not stated) -21.7%
CCC(Oc1ccccc1)C(=O)Nc1ccc(O)c(-c2nc3cc(C)ccc3o2)c1 (configuration not stated) 0.328%
COc1cccc(NC(=O)CCS(=O)(=O)c2ccc3c(c2)oc(=O)n3C)c1 -2.24%
COc1ccc(NC(=O)Cn2c(=O)n(CCCC(=O)NCc3ccccc3OC)c(=O)c3ccccc32)cc1Cl -30.2%
Cn1c(NCCCCO)nc2c1c(=O)n(Cc1ccc(Cl)cc1)c(=O)n2C 20.1%
